# Measurements as given in the supplement of paper PMC7826260.
# This is one part of the list. Each Rep nickase domain was tested in vitro on the same pool of single strands for 1 h at 37 °C with 3 µM enzyme; only the middle of the 90-letter strands is printed. A value is the log2 ratio of uncut reads to the pool without enzyme; the lower, the more was cut; hits are not called. Counts are relative to all reads, so uncut sequences can rise above 0 when many others are cut.
# How the values were obtained:
# Assay in all cases: uncleaved DNA left, log2 of reads against the no-enzyme library (log2 ratio); higher = less cleavage (more negative = more Rep cleavage of the k-mer); sequences stand for … in CTCGTCCG…ACCGGAGA
# [1] = tested on: T1, Rep nickase domain of Muscovy duck circovirus
# T1 sequence (residues 1-111 of Rep, tag left off): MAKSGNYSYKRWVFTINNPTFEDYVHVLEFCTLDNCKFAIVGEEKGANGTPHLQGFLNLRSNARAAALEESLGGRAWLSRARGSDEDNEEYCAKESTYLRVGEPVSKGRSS
# Method: (§1)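 A pool of 90-nt single-stranded DNAs with seven random bases just before the constant AC of the nick site (name = the seven bases) was cut by 3 µM recombinant His6-SUMO-tagged Rep nickase domain (300 nM DNA, 50 mM HEPES pH 8.0, 50 mM NaCl, 1 mM MnCl2, 1 h, 37 °C, three replicates). Uncut DNA was amplified and sequenced.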
# [2] = tested on: T2, Rep nickase domain of banana bunchy top virus
# T2 sequence (residues 1-94 of Rep, tag left off): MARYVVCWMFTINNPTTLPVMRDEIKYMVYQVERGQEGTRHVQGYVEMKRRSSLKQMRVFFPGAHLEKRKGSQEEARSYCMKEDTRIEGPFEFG
# Method: as §1
# [3] = tested on: T3, Rep nickase domain of cabbage leaf curl virus
# T3 sequence (residues 1-116 of Rep, tag left off): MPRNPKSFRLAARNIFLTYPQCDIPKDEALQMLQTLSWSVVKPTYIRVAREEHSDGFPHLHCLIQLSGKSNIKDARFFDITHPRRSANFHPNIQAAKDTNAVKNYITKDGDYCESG
# Method: as §1
# [4] = tested on: T4, Rep nickase domain of chickpea chlorotic dwarf virus
# T4 sequence (residues 1-124 of Rep, tag left off): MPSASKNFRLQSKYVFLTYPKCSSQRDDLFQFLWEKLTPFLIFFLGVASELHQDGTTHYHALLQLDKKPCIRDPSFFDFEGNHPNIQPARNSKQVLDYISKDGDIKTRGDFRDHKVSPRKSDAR
# Method: as §1
# [5] = tested on: T5, Rep nickase domain of faba bean necrotic yellows virus
# T5 sequence (residues 1-98 of Rep, tag left off): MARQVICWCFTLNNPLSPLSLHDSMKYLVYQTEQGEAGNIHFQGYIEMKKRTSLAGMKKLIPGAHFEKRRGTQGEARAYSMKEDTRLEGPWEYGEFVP
# Method: as §1
# [6] = tested on: T6, Rep nickase domain of maize striate mosaic virus
# T6 sequence (residues 1-117 of Rep, tag left off): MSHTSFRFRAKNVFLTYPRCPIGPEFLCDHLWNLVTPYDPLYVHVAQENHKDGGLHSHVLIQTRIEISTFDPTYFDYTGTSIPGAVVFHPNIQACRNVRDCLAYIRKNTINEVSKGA
# Method: as §1
# [7] = tested on: T7, Rep nickase domain of porcine circovirus 2
# T7 sequence (residues 2-116 of Rep, tag left off): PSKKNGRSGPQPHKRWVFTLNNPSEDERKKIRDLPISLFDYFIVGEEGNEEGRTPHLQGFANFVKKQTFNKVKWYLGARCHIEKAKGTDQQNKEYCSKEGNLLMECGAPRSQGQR
# Method: as §1
# [8] = tested on: T8, Rep nickase domain of tomato yellow leaf curl virus
# T8 sequence (residues 1-136 of Rep, tag left off): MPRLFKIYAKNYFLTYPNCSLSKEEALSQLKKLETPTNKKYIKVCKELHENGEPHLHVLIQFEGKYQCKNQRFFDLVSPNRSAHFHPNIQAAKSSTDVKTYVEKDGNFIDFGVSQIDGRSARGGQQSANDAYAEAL
# Method: as §1
# [9] = tested on: T9, Rep nickase domain of wheat dwarf virus
# T9 sequence (residues 1-137 of Rep, tag left off): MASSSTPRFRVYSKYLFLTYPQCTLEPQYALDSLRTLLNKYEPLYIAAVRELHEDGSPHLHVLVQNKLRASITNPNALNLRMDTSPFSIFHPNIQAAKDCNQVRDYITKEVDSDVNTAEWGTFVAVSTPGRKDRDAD
# Method: as §1
Sequence,uncleaved DNA left (log2) [1],uncleaved DNA left (log2) [2],uncleaved DNA left (log2) [3],uncleaved DNA left (log2) [4],uncleaved DNA left (log2) [5],uncleaved DNA left (log2) [6],uncleaved DNA left (log2) [7],uncleaved DNA left (log2) [8],uncleaved DNA left (log2) [9]
GCCCACA,-0.0675,-0.0516,0.0467,-0.276,-0.205,0.133,-0.0506,-0.0698,-0.0694
TCCCTCG,-0.0258,-0.0927,-0.785,-0.534,0.00747,-1.27,-0.0971,-0.0097,-0.222
AGCGGTA,-0.0153,0.16,0.121,0.318,0.0822,0.805,-1.15,0.165,0.0486
CATCTTT,-0.156,-0.385,-0.404,-3.1,-0.0386,-0.806,-2.19,0.0176,-0.137
AAAATCG,0.123,0.116,-0.884,0.0124,0.135,-1.07,0.289,0.065,0.0259
ATTGCGG,-0.0541,-0.0189,-0.778,-0.633,0.0263,-0.899,0.107,0.025,-0.0887
TGGAAGC,0.0646,0.0826,0.287,0.573,0.176,0.0816,0.344,0.138,0.0838
TAGGCAG,0.0305,-0.0175,-0.461,-0.439,0.0417,-0.902,0.139,0.0689,-0.0322
ATGTGGT,-0.088,0.027,0.144,0.879,-0.169,1.16,-2.34,-0.0736,-0.0252
AAAAACT,0.0898,0.077,-2.89,-2.73,0.181,-1.08,-1.67,0.0589,-1.02
ATTATAA,0.00824,-0.0467,-0.152,-0.19,0.0162,-0.62,-0.0827,0.0934,0.0222
GTGACTC,0.0417,0.105,0.528,1.25,-0.028,2.04,0.118,0.0328,0.15
AGCTCCT,-0.0242,0.00252,0.098,-0.731,-0.102,0.584,-1.43,0.0776,0.0889
GAGCTTC,-0.096,-0.1,0.0733,0.402,0.0028,0.623,-0.405,-0.0549,-0.0305
TAGACAA,0.0848,0.0874,0.452,0.87,0.0647,1.12,0.0528,0.178,0.0654
